# This is one part of the list. The list includes weakly bound sequences.
# Biological target: MaxL homodimer (UniProt P61244)
# Experiment: universal protein-binding microarray (PBM)
# Settings: PBS-based mixture, 10 nM His-tagged protein dimer, 2% milk, 200 ng/uL BSA, 50 ng/uL salmon testes DNA, 0.02% TX-100; detection with Alexa 488 anti-His …; high values mean tight binding; most listed sequences are background and not binding sites; double strand, one strand shown
# Chain of UniProt P61244 (P61244 whole entry): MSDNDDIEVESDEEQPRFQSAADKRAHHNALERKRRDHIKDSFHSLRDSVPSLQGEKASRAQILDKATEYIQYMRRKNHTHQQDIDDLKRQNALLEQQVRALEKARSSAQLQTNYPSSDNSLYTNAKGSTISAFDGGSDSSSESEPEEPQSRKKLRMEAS
row,Sequence,binding signal (normalized occupancy)
1,ACTGTCGC,0.0727
2,CGACCCCC,0.0803
3,AATCCACA,0.0813
4,AAACTGGT,0.0753
5,ACCGTTGG,0.0736
6,AATCCGAC,0.0705
7,GTGGTAAC,0.0837
8,AGAAGCCT,0.0722
9,ACAAGGTC,0.0805
10,GATAGCAC,0.0804
11,CTCCTTTA,0.0648
12,GAGTCCAC,0.0828
13,GACTAACA,0.0705
14,ATTTGGCA,0.0721
15,CCCAACGG,0.0681
16,CTGCCTTC,0.0681
17,AACTATCA,0.0785
18,AGTCGAAT,0.0707
19,GGCTGTAA,0.0715
20,GTAAGAGA,0.0798
21,CCCTGCGG,0.0745
22,ACGGCTAG,0.0706
23,GAGTATAC,0.0758
24,CGGAGAGA,0.0713
25,CTTAGGAC,0.0739

row,Sequence,binding signal (normalized occupancy)
1,CTCTACAC,0.0757
2,GATTAACA,0.0793
3,GAAGTAGC,0.0734
4,ACCTAGGC,0.0711
5,AGTGGAAG,0.0706
6,GTATCCGA,0.0719
7,AGAGATAA,0.0771
8,CATGGAAC,0.0836
9,GGGGACCA,0.08
10,GTCAAACA,0.0807
11,AGACTACG,0.0723
12,AAGTGTTG,0.0719
13,AGAAAACC,0.0706
14,GCCAAAAA,0.0676
15,ACAGAGGA,0.0701
16,ATCCCGTA,0.0775
17,AATTGATC,0.0748
18,ACCAGGGA,0.0753
19,CGGTTAAA,0.0714
20,GGACACCA,0.0765
21,AACTCCGC,0.0703
22,GCTGCTAA,0.0678
23,ACCTCGAG,0.0843
24,CGCGCGAG,0.0787
25,ACTGAAAT,0.0694

row,Sequence,binding signal (normalized occupancy)
1,AGTAGACT,0.0733
2,GATCGGCC,0.069
3,TGGACTAA,0.0709
4,AACTCCCA,0.0735
5,ATCATGTA,0.0811
6,GCGTATCC,0.0747
7,GCATTACC,0.0757
8,GCGGGCTA,0.0715
9,TAGGACCA,0.0741
10,ATATGCAC,0.092
11,AGAACGAT,0.0727
12,CAAATCGC,0.0728
13,ATTCCAAA,0.0752
14,AAACTGAC,0.0689
15,ACTAGCAA,0.0719
16,CCTCGAAC,0.0701
17,ATCAAACG,0.0782
18,ACGCAGTG,0.0735
19,GAACCGAC,0.0685
20,ATCGCGAC,0.0736
21,ACACGTAT,0.0833
22,GAAAACAA,0.0774
23,TAGAACTA,0.0696
24,ATCACTGA,0.073
25,AACGAGCG,0.0748

row,Sequence,binding signal (normalized occupancy)
1,CTCGATAC,0.0749
2,CATCAATG,0.0829
3,AAGTTAGA,0.0733
4,AACGCACC,0.0799
5,CGAAGATA,0.0773
6,CTTAAACA,0.0714
7,CTGCTTTC,0.0688
8,ATCCGTTA,0.076
9,AAGAGGAC,0.0753
10,CGCGGCGC,0.0731
11,CACCAGCA,0.0803
12,GAGGATGC,0.081
13,AAGGTCGT,0.0721
14,ATATACCC,0.0842
15,GATTCGCA,0.077
16,AGGTATCA,0.0877
17,CCTCAACG,0.078
18,AGCAAAGA,0.0734
19,GTAGACCA,0.0778
20,GTAAACAC,0.0782
21,ACCGATTA,0.0723
22,ACGAACAT,0.0821
23,GGCCTACC,0.0704
24,GCCTGAGC,0.0708
25,CTTCGAAG,0.0673

row,Sequence,binding signal (normalized occupancy)
1,ACTCGTTG,0.0775
2,TAGCCCCA,0.0839
3,ATTCTTGC,0.07
4,CCGCTGGA,0.0679
5,AATCTCGA,0.0757
6,GGCAGGCA,0.0727
7,GACCTCTC,0.0709
8,ATTACGGC,0.0711
9,AGAATGCT,0.0773
10,TATCGACA,0.0824
11,ACAAGCTG,0.0702
12,ATTCACTA,0.0794
13,CGCGCAAA,0.0707
14,TAGCTGGA,0.0696
15,AAATGATA,0.0799
16,GTAGCCTA,0.0745
17,GCCGGGAA,0.0691
18,ATTCGTTG,0.0761
19,AAACCGAA,0.0754
20,CCGGGGCC,0.0676
21,ATCATGCC,0.0958
22,CTCGATTA,0.0773
23,CCCGATCC,0.0759
24,AATCGCGG,0.0703
25,CCCCATAG,0.0807

row,Sequence,binding signal (normalized occupancy)
1,AACAAATT,0.0736
2,ACCGGGCA,0.0707
3,ACCGCTAG,0.0695
4,AAATGATT,0.0757
5,ACATTAAA,0.0799
6,CTTCAGGC,0.0728
7,AGTGATTC,0.0729
8,ACGATATG,0.083
9,ATAACAAC,0.0771
10,ATCGCCAG,0.0753
11,CTACTGAG,0.0688
12,TGCCATAA,0.0864
13,ATAGCTCA,0.0729
14,GGGGGAAA,0.0757
15,GTTGCGCA,0.0736
16,ACTATCCC,0.078
17,AAGCGTGC,0.104
18,ATCGCGGC,0.0711
19,AACGAAGT,0.0697
20,AAGGATCC,0.0705
21,CGAATAAC,0.0806
22,ATATGATC,0.0857
23,TCCTAAAA,0.0736
24,GCATATGA,0.0934
25,ACCATTCC,0.0757

row,Sequence,binding signal (normalized occupancy)
1,GCTCGTGA,0.0843
2,ACCGGCAA,0.0701
3,CACCGATA,0.0716
4,ACGCGTCC,0.0815
5,AGGATTTG,0.0735
6,CTTCCCGC,0.0751
7,AACTGCAA,0.0708
8,CCAGCGTA,0.0722
9,CTGAGGTA,0.0725
10,ATTTCTGG,0.0774
11,AAGAAGCC,0.0665
12,AGCCCTGG,0.07
13,AATGCTAC,0.0772
14,CTATGGGC,0.0769
15,ACCCAACC,0.0807
16,ATTTCGAC,0.0789
17,ACTCTCAT,0.0816
18,CGTCCGTC,0.0701
19,ATAACGAC,0.0827
20,CTTACCAA,0.0772
21,ACCCGGAG,0.0736
22,TCTAGACA,0.0768

# Source: article PMC4242493
